In patent US7381744B1, “Method of treating osteoporosis comprising vacuolar-type (H+)-ATPase-inhibiting compounds” (The United States of America as represented by the …, priority 1999, dated 2008):
Read-outs that look alike come from different tables or passages of the source.

System: panel of 60 different human tumor cell lines
Assay: NCI 60 cell-line screen, whole panel (mean panel values)
[1] = read-out: Mean-Panel GI50, Example 5, contemporaneous quadruplicate testing, upper concentration 10^-6 molar
[2] = Homo sapiens, read-out: Mean-Panel GI50

Question: With C/C=C/[C@H]1O[C@@](O)([C@@H](C)[C@H](O)[C@H](C)[C@H]2OC(=O)/C(OC)=C/C(C)=C/[C@@H](C)[C@@H](O)[C@@H](CC)[C@@H](O)[C@H](C)C/C(C)=C/C=C/[C@@H]2OC)C[C@@H](O[C@H]2C[C@@H](O)[C@H](OC(N)=O)[C@@H](C)O2)[C@@H]1C [concanamycin A, reference compound] as the compound, how does the GI50 [1] read?
Answer: 0.33 nM

Question: How did the GI50 [1] turn out when CO/C1=C\C(C)=C\[C@@H](C)[C@@H](O)[C@@H](C)C/C(C)=C/C=C/[C@H](OC)[C@@H]([C@@H](C)[C@@H](O)[C@H](C)[C@@]2(O)C[C@@H](O)[C@H](C)[C@@H](C(C)C)O2)OC1=O [bafilomycin A1, reference compound] was run?
Answer: 4.6 nM

Question: With CO/N=C\C=C/C(=O)N/C=C/CC1CC(=O)OC(C)/C=C/C(O)/C(C)=C\Cc2cccc(O)c2C(=O)O1 (stereo not drawn) [lobatamide B] as the compound, how does the GI50 [2] read?
Answer: 0.73 nM

Question: With CC/C=C\C=C/C(=O)N/C=C/CC1CC(O)C(C)C/C=C/Cc2cccc(O)c2C(=O)O1 (stereo not drawn) [salicylihalamide A] as the compound, how does the GI50 [2] read?
Answer: 33 nM

Question: And the GI50 (Homo sapiens, read-out: mean panel GI50 concentration)?
Answer: ~15 nM

Question: For CO/N=C/C=C\C(=O)N/C=C/CC1CC(=O)OC(C)/C=C/C(O)/C(C)=C\Cc2cccc(O)c2C(=O)O1 (stereo not drawn) [lobatamide A], which GI50 [2] is on record?
Answer: 4.8 nM

Question: With CO/N=C\C=C/C(=O)N/C=C/CC1CC(=O)OC(CO)/C=C/C(O)/C(C)=C\Cc2cccc(O)c2C(=O)O1 (stereo not drawn) [lobatamide E] as the compound, how does the GI50 [2] read?
Answer: 1.3 nM

Question: CO/N=C/C=C/C(=O)N/C=C/CC1CC(=O)OC(CO)/C=C/C(O)/C(C)=C\Cc2cccc(O)c2C(=O)O1 (stereo not drawn) [lobatamide F] was tested. Which GI50 [2] did it give?
Answer: 10 nM

Question: Which GI50 [2] does the source give for CO/N=C/C=C/C(=O)N/C=C/CC1CC(=O)OC(C)/C=C/C(O)/C(C)=C\Cc2cccc(O)c2C(=O)O1 (stereo not drawn) [lobatamide C] here?
Answer: 2.5 nM
